{
  "source": "the supplement of paper PMC3334620",
  "note": "In all, about 33,000 sequences were measured (“E-score (-0.5 to 0.5)”: median about -0.01, highest 2% from about 0.26 on). The list shows a part of the results.",
  "data": [
    {"target": "Ste12 (UniProt P13574)", "test": "PBM E-score (8-mer binding enrichment) (E-score (-0.5 to 0.5)); higher = stronger / more preferred TF binding; most listed sequences are background and not binding sites", "details": "protein concentration: 200 nM; construct: GST-DNA-binding domain", "outline": "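E-scores (a modified Wilcoxon-Mann-Whitney statistic) were assigned by the Universal PBM Analysis Suite to every ungapped eight-base word pooled with its reverse complement. The input came from universal all-10-mer Agilent arrays made double-stranded by primer extension and probed with GST-tagged yeast transcription factors at about 100-200 nM. Fluorescent anti-GST detected bound protein, and masliner normalised the scans.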", "values": [
      {"sequence": "ACATGCGT", "PBM E-score": 0.0857},
      {"sequence": "CGCTTACC", "PBM E-score": -0.175},
      {"sequence": "GCCACATA", "PBM E-score": -0.165},
      {"sequence": "ACAATGTG", "PBM E-score": 0.132},
      {"sequence": "GTTTGAAA", "PBM E-score": 0.409},
      {"sequence": "AAATGCGG", "PBM E-score": 0.113},
      {"sequence": "CACCACCA", "PBM E-score": 0.0187},
      {"sequence": "CCTTAACG", "PBM E-score": 0.0779},
      {"sequence": "CCGACGGC", "PBM E-score": -0.0579},
      {"sequence": "CGTGATGC", "PBM E-score": 0.0567},
      {"sequence": "CGGGATGC", "PBM E-score": -0.111},
      {"sequence": "GTTACTCA", "PBM E-score": 0.0672},
      {"sequence": "CTTGCGCA", "PBM E-score": 0.156},
      {"sequence": "AGATCTTA", "PBM E-score": 0.0906},
      {"sequence": "GCGCATTA", "PBM E-score": -0.0799},
      {"sequence": "AAAATGAA", "PBM E-score": 0.27},
      {"sequence": "CTTTGCGC", "PBM E-score": 0.117},
      {"sequence": "CATTTCGC", "PBM E-score": -0.0451},
      {"sequence": "ATCAAGCG", "PBM E-score": 0.059},
      {"sequence": "GATGTGTA", "PBM E-score": -0.051},
      {"sequence": "CCATTGGA", "PBM E-score": -0.224},
      {"sequence": "CGACGGAC", "PBM E-score": -0.137},
      {"sequence": "GAACTAAA", "PBM E-score": 0.247},
      {"sequence": "AGCTTGAA", "PBM E-score": -0.0125},
      {"sequence": "TCAGACCA", "PBM E-score": 0.0264},
      {"sequence": "AAGATTTC", "PBM E-score": 0.169},
      {"sequence": "ACCATTTG", "PBM E-score": 0.0814},
      {"sequence": "ATCATCTG", "PBM E-score": 0.0767},
      {"sequence": "CGTGCTAG", "PBM E-score": -0.17},
      {"sequence": "GAGGCGTA", "PBM E-score": 0.023},
      {"sequence": "AACTATAT", "PBM E-score": 0.193},
      {"sequence": "AGTAGCTG", "PBM E-score": -0.149},
      {"sequence": "GCGATTAA", "PBM E-score": 0.168},
      {"sequence": "CGTGTCAA", "PBM E-score": 0.00368},
      {"sequence": "CAGTCCCG", "PBM E-score": -0.235},
      {"sequence": "CGTGAGCA", "PBM E-score": -0.07},
      {"sequence": "CAATACCG", "PBM E-score": 0.0644},
      {"sequence": "ACTTCTCA", "PBM E-score": -0.0157},
      {"sequence": "GACAGTGC", "PBM E-score": -0.0356},
      {"sequence": "CGAGGAAG", "PBM E-score": 0.0593},
      {"sequence": "AGTGCGTA", "PBM E-score": -0.174},
      {"sequence": "GAAGGATC", "PBM E-score": -0.181},
      {"sequence": "ACCACGTA", "PBM E-score": -0.194},
      {"sequence": "GGACAGAC", "PBM E-score": -0.123},
      {"sequence": "CGCGACAC", "PBM E-score": 0.133},
      {"sequence": "ATAGGCGG", "PBM E-score": 0.0245},
      {"sequence": "CGCTTCCA", "PBM E-score": -0.0876},
      {"sequence": "GTTTGGAA", "PBM E-score": 0.217},
      {"sequence": "ATTTTACC", "PBM E-score": 0.277},
      {"sequence": "GGAGCGCA", "PBM E-score": -0.293},
      {"sequence": "CAAGTTAC", "PBM E-score": 0.0412},
      {"sequence": "CCTTTCAG", "PBM E-score": -0.115},
      {"sequence": "CCTTATGA", "PBM E-score": 0.0898},
      {"sequence": "CAAGCAAG", "PBM E-score": 0.0543},
      {"sequence": "AATGTTAA", "PBM E-score": 0.102},
      {"sequence": "AGACCGCA", "PBM E-score": -0.0945},
      {"sequence": "ACTGCGAT", "PBM E-score": -0.072},
      {"sequence": "CACCGACC", "PBM E-score": -0.116},
      {"sequence": "AATGTCTA", "PBM E-score": -0.119},
      {"sequence": "TTGCAAAA", "PBM E-score": 0.242},
      {"sequence": "GGAGATCC", "PBM E-score": -0.168},
      {"sequence": "AACATATA", "PBM E-score": 0.105},
      {"sequence": "AGGGCTGG", "PBM E-score": -0.185},
      {"sequence": "CTAAGTTC", "PBM E-score": -0.152},
      {"sequence": "CGGGGGGA", "PBM E-score": -0.188},
      {"sequence": "GACCCGTC", "PBM E-score": -0.0556},
      {"sequence": "AGAGTTCA", "PBM E-score": -0.222},
      {"sequence": "CATTTGGA", "PBM E-score": 0.0569},
      {"sequence": "CTCGGAGC", "PBM E-score": 0.119},
      {"sequence": "AACCTACT", "PBM E-score": 0.125},
      {"sequence": "CAAAAAGA", "PBM E-score": 0.178},
      {"sequence": "CGTTAGGC", "PBM E-score": -0.0275},
      {"sequence": "ACCCAGAG", "PBM E-score": -0.0365},
      {"sequence": "CTACGACA", "PBM E-score": -0.0604},
      {"sequence": "CCCGCCAG", "PBM E-score": 0.0464},
      {"sequence": "CATTTCCG", "PBM E-score": 0.195},
      {"sequence": "AAGGGTGC", "PBM E-score": -0.0793},
      {"sequence": "TAGTCTCA", "PBM E-score": 0.0995},
      {"sequence": "ACCCCACA", "PBM E-score": 0.119},
      {"sequence": "AGGCGCGA", "PBM E-score": 0.101},
      {"sequence": "GCTTCCCC", "PBM E-score": -0.00673},
      {"sequence": "ATCAACCC", "PBM E-score": 0.168},
      {"sequence": "TCAAGGGA", "PBM E-score": -0.179},
      {"sequence": "ATTACCGC", "PBM E-score": 0.204},
      {"sequence": "GTCACTAA", "PBM E-score": 0.0793},
      {"sequence": "CCTGGCAA", "PBM E-score": -0.0699}
    ]}
  ]
}
